# This is one part of the list. Sequences were assembled here from the parent chain. Inactive controls read about 0.05.
# B1: TEV protease; numbered along this chain (parent)
# chain: MGESLFKGPRDYNPISSSICHLTNESDGHTTSLYGIGFGPFIITNKHLFRRNNGTLVVQSLHGVFKVKDTTTLQQHLVDGRDMIIIRMPKDFPPFPQKLKFREPQREERICLVTTNFQTKSMSSMVSDTSCTFPSGDGIFWKHWIQTKDGQCGSPLVSTRDGFIVGIHSASNFTNTNNYFTSVPKNFMELLTNQEAQQWVSGWRLNADSVLWGGHKVFMVKPEEPFQPVKEATQL
# Variants of: B1
# Assay: raw area under fraction-flipped curve 0-4 h after induction (AUC4h, not background-subtracted), DNA-recorder readout of cleavage of the substrate (dimensionless); higher = more cleavage of the substrate by the protease variant
# Details: temperature: 34 °C; time window: 0-4 h after rhamnose induction
# Procedure: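 In vivo DNA recorder in E. coli TOP10(DE3) ΔrhaA at 34 °C. Each TEVp single-site mutant (parent TEVp 0) is paired with a single-site variant of the 7-mer TEVs (canonical ENLYFQ|S). The substrate sits between flexible linkers in a Bxb1-sfGFP-TEVs-SsrA fusion, so cleavage stabilises Bxb1 and speeds flipping of a recombination array, read by NGS. The value is the raw area under the fraction-flipped curve over 0-4 h after rhamnose induction (AUC4h), with ≥20 reads per time point. It is not background-subtracted; inactive controls average about 0.047.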
# 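Also: Bxb1 expression induced with 0.2% (w/v) L-rhamnose at OD600 near 0.5, cultures sampled hourly, flipped fraction per protease–substrate barcode pair counted by paired-end Illumina sequencing.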
Variant,area with substrate ENAYFQS,area with substrate ENCYFQS,area with substrate ENDYFQS,area with substrate ENEYFQS,area with substrate ENFYFQS,area with substrate ENGYFQS,area with substrate ENHYFQS,area with substrate ENIYFQS,area with substrate ENKYFQS,area with substrate ENMYFQS,area with substrate ENNYFQS,area with substrate ENPYFQS,area with substrate ENQYFQS,area with substrate ENRYFQS,area with substrate ENSYFQS,area with substrate ENTYFQS,area with substrate ENVYFQS,area with substrate ENWYFQS,area with substrate ENYYFQS
MGESLFKGPRDYNPISSSICHLTNESDGHTTSLYGIGFGPFIITNKHLFRRNNGTLVVQSLHGVFKVKDTTTLQQHLVDGRDMIIIRMPKDFPPFPQKLKFREPQREERICLLTTNFQTKSMSSMVSDTSCTFPSGDGIFWKHWIQTKDGQCGSPLVSTRDGFIVGIHSASNFTNTNNYFTSVPKNFMELLTNQEAQQWVSGWRLNADSVLWGGHKVFMVKPEEPFQPVKEATQL [V113L],0.0708,0.0666,0.0623,0.0549,0.0641,0.0631,0.0598,0.089,0.0643,0.0829,0.0699,0.0476,0.0831,0.0685,0.0854,0.0709,,,
MGESLFKGPRDYNPISSSICHLTNESDGHTTSLYGIGFGPFIITNKHLFRRNNGTLVVQSLHGVFKVKDTTTLQQHLVDGRDMIIIRMPKDFPPFPQKLKFREPQREERICLVMTNFQTKSMSSMVSDTSCTFPSGDGIFWKHWIQTKDGQCGSPLVSTRDGFIVGIHSASNFTNTNNYFTSVPKNFMELLTNQEAQQWVSGWRLNADSVLWGGHKVFMVKPEEPFQPVKEATQL [T114M],0.0501,,0.0398,0.069,0.0544,0.0599,0.0597,,,,0.0527,0.068,,,0.0888,0.0778,0.0793,0.0612,0.0624
MGESLFKGPRDYNPISSSICHLTNESDGHTTSLYGIGFGPFIITNKHLFRRNNGTLVVQSLHGVFKVKDTTTLQQHLVDGRDMIIIRMPKDFPPFPQKLKFREPQREERICLVTCNFQTKSMSSMVSDTSCTFPSGDGIFWKHWIQTKDGQCGSPLVSTRDGFIVGIHSASNFTNTNNYFTSVPKNFMELLTNQEAQQWVSGWRLNADSVLWGGHKVFMVKPEEPFQPVKEATQL [T115C],0.0521,,0.0657,0.0612,0.053,0.0577,0.0627,,,,,0.0608,0.0426,0.0638,0.0552,0.056,0.0621,,0.0622
MGESLFKGPRDYNPISSSICHLTNESDGHTTSLYGIGFGPFIITNKHLFRRNNGTLVVQSLHGVFKVKDTTTLQQHLVDGRDMIIIRMPKDFPPFPQKLKFREPQREERICLVTTAFQTKSMSSMVSDTSCTFPSGDGIFWKHWIQTKDGQCGSPLVSTRDGFIVGIHSASNFTNTNNYFTSVPKNFMELLTNQEAQQWVSGWRLNADSVLWGGHKVFMVKPEEPFQPVKEATQL [N116A],0.0456,0.0686,0.0579,0.0258,0.057,0.0452,,0.111,,0.0795,,0.0524,0.0555,0.0628,0.0405,0.0632,0.0677,0.0473,
MGESLFKGPRDYNPISSSICHLTNESDGHTTSLYGIGFGPFIITNKHLFRRNNGTLVVQSLHGVFKVKDTTTLQQHLVDGRDMIIIRMPKDFPPFPQKLKFREPQREERICLVTTNMQTKSMSSMVSDTSCTFPSGDGIFWKHWIQTKDGQCGSPLVSTRDGFIVGIHSASNFTNTNNYFTSVPKNFMELLTNQEAQQWVSGWRLNADSVLWGGHKVFMVKPEEPFQPVKEATQL [F117M],0.073,0.0564,,0.0658,0.0544,0.0623,,,0.0635,,,,0.0856,0.047,0.105,,,,
MGESLFKGPRDYNPISSSICHLTNESDGHTTSLYGIGFGPFIITNKHLFRRNNGTLVVQSLHGVFKVKDTTTLQQHLVDGRDMIIIRMPKDFPPFPQKLKFREPQREERICLVTTNFATKSMSSMVSDTSCTFPSGDGIFWKHWIQTKDGQCGSPLVSTRDGFIVGIHSASNFTNTNNYFTSVPKNFMELLTNQEAQQWVSGWRLNADSVLWGGHKVFMVKPEEPFQPVKEATQL [Q118A],0.0639,0.0634,0.0068,0.0647,0.0622,0.141,0.0569,0.123,0.0608,0.0701,0.0602,0.057,0.0351,0.061,0.0551,0.0686,0.0764,,
MGESLFKGPRDYNPISSSICHLTNESDGHTTSLYGIGFGPFIITNKHLFRRNNGTLVVQSLHGVFKVKDTTTLQQHLVDGRDMIIIRMPKDFPPFPQKLKFREPQREERICLVTTNFFTKSMSSMVSDTSCTFPSGDGIFWKHWIQTKDGQCGSPLVSTRDGFIVGIHSASNFTNTNNYFTSVPKNFMELLTNQEAQQWVSGWRLNADSVLWGGHKVFMVKPEEPFQPVKEATQL [Q118F],0.0384,0.0717,0.0676,0.0684,0.0701,,0.0503,0.102,,,0.0562,0.0642,,0.0575,0.0586,0.07,0.0813,,0.0369
MGESLFKGPRDYNPISSSICHLTNESDGHTTSLYGIGFGPFIITNKHLFRRNNGTLVVQSLHGVFKVKDTTTLQQHLVDGRDMIIIRMPKDFPPFPQKLKFREPQREERICLVTTNFGTKSMSSMVSDTSCTFPSGDGIFWKHWIQTKDGQCGSPLVSTRDGFIVGIHSASNFTNTNNYFTSVPKNFMELLTNQEAQQWVSGWRLNADSVLWGGHKVFMVKPEEPFQPVKEATQL [Q118G],0.0653,0.0654,0.0703,0.0592,0.112,0.0585,,0.132,,,0.0675,0.061,0.0598,0.0639,0.0599,,0.102,,0.1
MGESLFKGPRDYNPISSSICHLTNESDGHTTSLYGIGFGPFIITNKHLFRRNNGTLVVQSLHGVFKVKDTTTLQQHLVDGRDMIIIRMPKDFPPFPQKLKFREPQREERICLVTTNFNTKSMSSMVSDTSCTFPSGDGIFWKHWIQTKDGQCGSPLVSTRDGFIVGIHSASNFTNTNNYFTSVPKNFMELLTNQEAQQWVSGWRLNADSVLWGGHKVFMVKPEEPFQPVKEATQL [Q118N],0.0618,,,0.0414,0.0567,,,,,0.0717,0.0691,,0.0572,,0.0683,0.0576,,,

# Reference: the supplement of paper PMC12217912
